Assay results: PMC4336329 (PLoS ONE, 2015)
In all, about 310,000 compounds went through this assay and about 14,000 (4.5%) showed an effect of 50% or more. The effect is printed as a negative number. Some of the results follow.

Target: human ether-à-go-go-related gene (hERG) potassium channel (human, UniProt Q12809)
Assay: primary screen, population patch clamp on CHO cells stably expressing hERG
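Further: peak tail current of the secondary pulse compared with the same well before compound.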

Chain of human ether-à-go-go-related gene (hERG) potassium channel (Q12809 whole entry, looked up): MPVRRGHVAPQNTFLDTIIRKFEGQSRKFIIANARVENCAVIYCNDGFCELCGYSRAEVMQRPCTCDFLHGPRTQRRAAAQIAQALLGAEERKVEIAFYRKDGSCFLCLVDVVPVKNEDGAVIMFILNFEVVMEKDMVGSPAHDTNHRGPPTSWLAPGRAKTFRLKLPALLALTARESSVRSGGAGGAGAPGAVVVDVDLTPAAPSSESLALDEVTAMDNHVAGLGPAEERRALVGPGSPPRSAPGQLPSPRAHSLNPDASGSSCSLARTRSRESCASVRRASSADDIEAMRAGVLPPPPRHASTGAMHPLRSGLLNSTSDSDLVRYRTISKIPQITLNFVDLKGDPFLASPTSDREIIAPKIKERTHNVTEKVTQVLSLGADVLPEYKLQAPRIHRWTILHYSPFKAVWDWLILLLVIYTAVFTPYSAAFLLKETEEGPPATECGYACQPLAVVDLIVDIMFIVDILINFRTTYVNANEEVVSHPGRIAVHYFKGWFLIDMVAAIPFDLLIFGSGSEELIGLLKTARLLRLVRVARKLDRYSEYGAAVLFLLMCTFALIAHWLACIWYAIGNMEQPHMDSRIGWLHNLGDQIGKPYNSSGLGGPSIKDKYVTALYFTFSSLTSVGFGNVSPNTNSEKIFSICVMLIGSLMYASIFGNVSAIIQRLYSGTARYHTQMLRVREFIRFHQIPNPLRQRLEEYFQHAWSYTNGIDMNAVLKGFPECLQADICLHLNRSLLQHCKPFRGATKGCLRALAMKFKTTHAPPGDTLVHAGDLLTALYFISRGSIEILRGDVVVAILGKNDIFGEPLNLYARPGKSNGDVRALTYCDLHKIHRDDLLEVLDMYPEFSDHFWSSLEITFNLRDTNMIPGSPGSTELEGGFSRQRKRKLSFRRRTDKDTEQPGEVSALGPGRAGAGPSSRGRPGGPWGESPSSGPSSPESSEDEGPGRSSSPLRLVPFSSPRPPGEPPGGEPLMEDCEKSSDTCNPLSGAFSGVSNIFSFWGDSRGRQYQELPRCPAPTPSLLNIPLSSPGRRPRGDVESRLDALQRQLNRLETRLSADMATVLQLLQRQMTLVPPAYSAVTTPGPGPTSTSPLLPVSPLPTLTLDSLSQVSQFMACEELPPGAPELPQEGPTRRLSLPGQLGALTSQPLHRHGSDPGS

Structure (SMILES) | hERG current change (%, negative = inhibition) at 10uM [%]
COc1ccc(NC(=O)CSc2nnc3ccc(-c4cccnc4)nn23)cc1 | -46.4
Cc1cc(-c2nc3ncccc3o2)ccc1NC(=O)CC(C)C | -17.1
Cc1ccc(C)c2nc(SCC(=O)Nc3ccc4c(c3)OCO4)c(C#N)cc12 | 5.6
CCOc1ccccc1NC(=O)CSc1nnc(Cc2ccc(OC)cc2)c(=O)n1N | -26.7
O=C1NC(=S)/C(=C\c2ccc(-c3ccccc3Cl)o2)S1 | 16.2
CC(=NCCC1=CCCCC1)c1c(O)n(C)c(=O)n(C)c1=O | -5.8
CSc1nc(Oc2ccc(F)cc2F)cc(C(F)(F)F)n1 | 14.2
CC1(C)C([N+](=O)[O-])C(c2ccc(O)cc2)NC(c2ccc(O)cc2)C1[N+](=O)[O-] (centres unmarked) | -3.25
Cn1c(N)c(C(=O)COC(=O)C2CCC(C(C)(C)C)CC2)c(=O)n(C)c1=O (centres unmarked) | -15
Cc1cc(C)c(S(C)(=O)=O)c(N(C)NC(=O)c2c(F)cccc2F)n1 | 19.5
O=C(CCCCCN1C(=O)[C@@H]2Cc3ccccc3CN2C1=O)N[C@@H](Cc1ccc(O)cc1)C(=O)O | 1.02
CCOc1ccc(CCNS(=O)(=O)c2c(C)nc3scc(C)n3c2=O)cc1OCC | -13.7
CCCn1nnnc1NCc1ccc(N2CCCC2)cc1 | -10.6
O=C(COc1ccc(Br)cc1)NCCNC(=O)c1ccncc1 | -34
CNC(=O)N(O)C1N(/N=C/c2ccc(N(C)C)cc2)C(=S)SC1(C)C (centres unmarked) | 31.5
C=CCn1c(SCn2nnc3ccccc3c2=O)nnc1-c1ccc(Cl)cc1 | -61.2
CC(C)CC(=O)Nc1ccc2ccccc2c1 | 4.3
O=C(/C=C/c1ccco1)NC(=S)Nc1ccccc1N1CCOCC1 | -7.73
CCOC(=O)c1c(NC(=O)CCS(=O)(=O)c2ccccc2)sc2c1CCN(C)C2.Cl | -52.5

Structure (SMILES) | hERG current change (%, negative = inhibition) at 10uM [%]
Cc1cc(=O)n2[nH]c(C)c(-c3ccc(Cl)cc3)c2n1 | 3.91
CC1CCCCN1CCCNC(=O)C1CCN(c2nnc(-n3cccc3)s2)CC1 (centres unmarked) | -27.1
CC1=CC(C)(C)N(C(=O)CSc2nnc(N)s2)c2ccccc21 | 6.19
CCN(C(=O)CN1C(=O)S/C(=C\c2ccccc2OC)C1=O)C1CCS(=O)(=O)C1 (centres unmarked) | 3.22
O=c1c2cnn(-c3ccccc3)c2ncn1Cc1ccco1 | -7.57
COc1ccc(CCN2CC(C(=O)NCCc3ccc(F)cc3)CCC2=O)cc1 (centres unmarked) | -22
Cc1ccc(/C=N/Nc2ccnc3cc(Cl)ccc23)c(C)c1 | 4.13
O=C1ON=C(c2ccccc2)/C1=C/c1ccc(OS(=O)(=O)c2ccccc2)cc1 | 12.8
Cc1cc(=O)oc2ccc(OCC(=O)N3CCc4ccccc43)cc12 | -5.88
CC(OC(=O)c1cc2sccc2n1C)C(=O)NCc1ccco1 (centres unmarked) | -12.7
Nc1cc(C(=O)OCC(=O)NCc2ccc(F)cc2)ccc1Cl | -11.2
CCc1ccc2[nH]c(=O)c(CN(Cc3nnnn3C3CCCC3)C3CCCCC3)cc2c1 | -13.4
COc1cccc(N2C(=O)CN(Cc3cc(OC)c(OC)c(OC)c3)C2=S)c1 | 13.1
Cc1ccc(OCCN(C)C(=O)C2CCC(=O)N(CCCN3CCCC3=O)C2)cc1 (centres unmarked) | 11.3
CCOC(=O)c1sc(NC(=O)CCN2CCCCCC2)c(C(=O)OCC)c1C | -24.7
N#CCCN(Cc1ccccc1)C(=S)NC(=O)c1ccccc1 | 6.65
COc1ccc(NC(=O)CSc2nnc(C)c3ccccc23)cc1 | 18.8
C=CCN1C(=O)C(Cc2ccc(OC)cc2)S/C1=N\N=C\c1cccs1 (centres unmarked) | 13.1
CCOC(=O)c1c(NC(=O)c2ccn(CC)n2)sc2c1CCC2 | 22.6

Structure (SMILES) | hERG current change (%, negative = inhibition) at 10uM [%]
CCN1C(=O)/C(=C/c2ccc(C)o2)N(C)C1=S | 11.5
CN(C)C(=O)Oc1cccc([N+](C)(C)C)c1.[Br-] | 11.5
O=C1NC(c2ccco2)Nc2sc3c(c21)CCN(Cc1ccccc1)C3 (centres unmarked) | -22
CC(C)c1ccc(NC2CCCN(C(=O)c3ccccc3-c3ncc[nH]3)C2)cc1 (centres unmarked) | -8.01
Cc1c(OCC(=O)N[C@@H](Cc2c[nH]c3ccccc23)C(=O)O)ccc2c1oc(=O)c1ccccc12 | 5.16
Cc1ccc(OCC(=O)N2CCN(S(=O)(=O)c3ccccc3[N+](=O)[O-])CC2)cc1 | -25.9
N#CCCn1c(=S)[nH]c2ccccc21 | 12.9
Cc1ccc(CCN2CC(C(=O)NC3CCCC3)CC2=O)cc1 (centres unmarked) | 6.17
COc1ccc(/C=N/NC(=O)OC(C)(C)C)cc1OC | -3.75
Nc1ncc(CN2CCCC(C(=O)Nc3ccc(-c4ccco4)cc3)C2)cn1 (centres unmarked) | -17.8
Cc1cc(=O)c2cc3nc(-c4cccnc4)oc3c(Br)c2o1 | 9.18
COc1ccccc1C(CNC(=O)c1cccc(NS(=O)(=O)c2ccc(C)c(F)c2)c1)N(C)C (centres unmarked) | -42.5
CCOC(=O)Cn1c(=NC(=O)c2nc3ccccc3s2)sc2cc(S(N)(=O)=O)ccc21 | 17.9
COc1ccc(/C=N/N=C2/SCC(=O)N2Cc2ccccc2)cc1 | -5.18
Cc1sc2c(c1C)c(=O)n(-c1ccccc1)c(=O)n2CC(=O)NCC1CCCO1 (centres unmarked) | 4.3
Cn1c(N/N=C/c2cccs2)cc(=O)n(C)c1=O | 9.45
COC(=O)c1ccc(NC(=O)C(OC)c2ccccc2)cc1 (centres unmarked) | 7.04
COc1ccc(N(C(=O)Cc2cccs2)C(C(=O)NC2CCCCC2)c2cccn2C)cc1 (centres unmarked) | -2.49
